Experiments:
[1] = target: T1, PD-L1-mFc (UniProt Q9NZQ7-1 fragment); experiment: ELISA; blocking: plates coated with 0.5 ug/mL PD-1 (21-167); antibody from 3 ug/mL, 1.5-fold dilutions, 37 °C 120 min; then 1 ug/mL PD-L1-mFc, detected with HRP-anti-mouse Fc; conditions: both partners purified
T1 construct: also called CD274; B7-H1

[2] = target: T2, PD-L2-hFc-Biotin (UniProt Q9BQ51-1 20-220, biotin); experiment: ELISA; blocking: plates coated with PD-1 (21-167); antibody, then 2 ug/mL PD-L2-hFc-Biotin, 37 °C 60 min, detected with HRP-streptavidin; conditions: both partners purified
T2 construct: NP_079515.2, residues 20-220; Detected through its biotin with HRP-streptavidin; also called CD273; B7-DC
T2 sequence (looked up): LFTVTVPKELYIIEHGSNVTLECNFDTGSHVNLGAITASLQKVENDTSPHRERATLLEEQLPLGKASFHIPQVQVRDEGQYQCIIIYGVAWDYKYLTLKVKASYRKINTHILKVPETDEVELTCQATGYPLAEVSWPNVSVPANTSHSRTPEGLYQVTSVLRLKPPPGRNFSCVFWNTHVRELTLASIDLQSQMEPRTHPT

- binding result [1]: binds
- binding result [2]: binds
B1: recombinant human PD-1 protein ([…]) (domain or fragment)
chain: not shown
notes: PD-1 used in SPR and the ELISAs
